We go through one compound from patent publication US5656630A, “Method of combating fungus” (American Cyanamid Company, priority 1993, dated 1997).

The series has as its system tomato plants. Conditions: in vivo. The source says: Consequently, if pure Z-isomer is applied in conditions which substantially exclude sunlight, lower amounts of Z-isomer are required than of the E/Z mixture to achieve the same fungicidal effect and the effect is achieved quicker. This is clearly advantageous from both an economic and ecological point of view.

Turning to `COc1ccc(/C(=C\C(=O)N2CCOCC2)c2ccc(Cl)cc2)cc1OC` [Z-isomer, Z-isomer of 4-[3-(4-chlorophenyl)-3-(3,4-dimethoxyphenyl)acryloyl]morpholine], the “absorption by the roots and translocation into the leaves” value is “much better absorbed by the roots and translocated into the leaves than the E-isomer”; the “concentration in the leaves compared with concentration in the solution applied” value is listed as “much higher than the concentration of Z-isomer in the solution applied to the plant”.
